# This is one part of the list. Sequences were assembled here from the parent chain. Inactive controls read about 0.05.
# B1: TEV protease; numbered along this chain (parent)
# chain: MGESLFKGPRDYNPISSSICHLTNESDGHTTSLYGIGFGPFIITNKHLFRRNNGTLVVQSLHGVFKVKDTTTLQQHLVDGRDMIIIRMPKDFPPFPQKLKFREPQREERICLVTTNFQTKSMSSMVSDTSCTFPSGDGIFWKHWIQTKDGQCGSPLVSTRDGFIVGIHSASNFTNTNNYFTSVPKNFMELLTNQEAQQWVSGWRLNADSVLWGGHKVFMVKPEEPFQPVKEATQL
# Variants of: B1
# Test: raw area under fraction-flipped curve 0-4 h after induction (AUC4h, not background-subtracted), DNA-recorder readout of cleavage of the substrate (dimensionless); higher = more cleavage of the substrate by the protease variant
# Settings: temperature: 34 °C; time window: 0-4 h after rhamnose induction
# Method: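 In vivo DNA recorder in E. coli TOP10(DE3) ΔrhaA at 34 °C. Each TEVp single-site mutant (parent TEVp 0) is paired with a single-site variant of the 7-mer TEVs (canonical ENLYFQ|S). The substrate sits between flexible linkers in a Bxb1-sfGFP-TEVs-SsrA fusion, so cleavage stabilises Bxb1 and speeds flipping of a recombination array, read by NGS. The value is the raw area under the fraction-flipped curve over 0-4 h after rhamnose induction (AUC4h), with ≥20 reads per time point. It is not background-subtracted; inactive controls average about 0.047.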
# 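Note: Bxb1 expression induced with 0.2% (w/v) L-rhamnose at OD600 near 0.5, cultures sampled hourly, flipped fraction per protease–substrate barcode pair counted by paired-end Illumina sequencing.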
Variant,area with substrate ENLAFQS,area with substrate ENLCFQS,area with substrate ENLDFQS,area with substrate ENLEFQS,area with substrate ENLFFQS,area with substrate ENLGFQS,area with substrate ENLHFQS,area with substrate ENLKFQS,area with substrate ENLLFQS,area with substrate ENLMFQS,area with substrate ENLNFQS,area with substrate ENLQFQS,area with substrate ENLRFQS,area with substrate ENLSFQS,area with substrate ENLVFQS,area with substrate ENLWFQS,area with substrate ENLPFQS,area with substrate ENLIFQS,area with substrate ENLTFQS
I145Q,0.0672,0.0679,0.0405,0.0565,0.0572,0.0621,0.0743,0.0408,0.06,0.0799,0.0478,0.0658,0.0594,0.0669,0.0744,0.0718,–,–,–
Q146I,0.0784,0.0608,0.0589,0.0666,0.106,0.0512,0.0689,0.11,0.0651,–,–,–,0.0979,0.0482,0.0915,–,–,–,–
T147G,0.0279,0.073,0.0608,0.0694,–,–,0.0661,–,–,–,0.0669,–,0.0451,–,–,0.0524,–,–,–
T147I,0.0499,0.0559,0.0563,0.0574,0.0665,0.0648,0.048,0.0639,–,0.0907,0.0617,0.0492,0.0962,0.0684,–,0.0635,0.0664,–,–
T147W,0.0663,–,0.0784,0.0516,0.0639,0.0937,0.0605,0.0764,0.0636,0.0373,0.072,0.0681,0.0817,–,–,0.0619,0.0687,0.0706,–
D149V,0.0711,–,0.0609,0.0655,0.138,–,–,0.0625,–,–,0.0617,–,–,0.0283,–,–,0.0507,0.0686,–
G150P,0.0546,0.0676,–,–,0.0574,0.0606,0.0659,0.0622,0.0569,0.0523,0.0639,0.0457,0.0568,0.0605,0.0552,–,0.0595,0.0878,0.0702
G150Q,0.0616,0.0691,–,–,0.0643,0.081,0.0435,0.0489,0.0733,0.0322,0.0701,0.0715,0.0624,0.0517,0.057,0.062,–,0.0616,–
S154C,0.0699,0.0724,0.0653,0.0703,0.0679,–,0.0706,0.0772,0.074,0.0675,0.068,0.0501,0.0857,0.0809,0.0896,0.0526,0.0679,0.0504,–
S154F,0.0668,–,–,0.0651,–,0.0547,0.0691,0.0601,–,–,–,0.0663,–,–,–,–,0.0391,–,–
S154L,0.0848,0.134,0.0637,0.0636,–,–,0.0775,0.108,–,0.0882,0.0632,–,–,0.0663,–,–,0.0592,0.0979,–
S154R,0.0316,0.074,0.0569,0.0542,0.0928,–,0.0566,0.0676,0.0751,–,0.0643,0.0563,0.07,0.0648,0.0754,0.0856,0.0681,0.0483,–
P155N,0.05,0.0611,0.0429,–,0.057,0.0622,0.0575,0.0496,0.0527,0.0625,0.0526,0.0491,–,0.0502,0.0483,0.0564,0.0085,0.0646,0.0565
L156C,0.0865,–,–,–,0.0784,–,0.0713,0.0865,0.0785,–,–,0.0828,0.0648,0.0547,–,0.0729,0.0382,0.0843,–
L156G,0.0483,0.0598,0.0467,0.0576,0.066,–,0.058,0.0521,–,0.0692,0.0501,–,0.0707,0.0308,–,0.0631,0.0401,0.0567,–
S158A,0.0647,–,–,0.0678,0.0837,–,0.0636,–,0.0745,0.105,0.0639,–,0.058,0.0495,–,–,0.0818,–,–
S158D,0.0659,0.0647,0.0572,0.0592,0.0758,–,0.0787,–,0.0676,0.0528,0.06,–,0.0711,0.0404,–,0.0279,–,0.065,–
S158I,0.0411,–,0.0489,–,0.0254,–,0.0243,0.0564,–,–,0.0561,0.0562,–,0.0469,–,0.0464,–,–,–
R160P,0.0666,0.0544,0.0532,0.0467,0.061,–,0.0583,0.0721,0.0652,–,0.0659,0.0613,0.0611,–,–,–,–,0.0776,–
R160S,0.0641,–,0.0719,–,–,–,–,–,–,–,0.0562,–,–,–,–,–,–,–,–
D161R,0.0422,0.065,0.0647,0.0396,0.0812,–,0.0637,0.0693,0.0361,–,0.0714,0.0483,0.0652,0.0502,–,–,0.0587,–,–
D161S,0.0646,0.0683,0.0676,0.0825,0.0733,0.068,0.0608,0.0783,–,–,–,0.0493,0.0625,0.0538,0.0742,–,–,0.0716,–
G162A,0.0659,–,0.0475,0.064,0.0629,–,–,0.0561,0.0631,–,0.0746,–,–,0.0658,–,–,–,–,–
V165G,0.0466,–,0.0549,0.0516,0.0581,–,0.0494,0.068,–,–,–,0.0516,0.0567,0.0515,0.0536,0.0474,0.0512,0.0516,0.0702
G166I,0.0692,–,0.0566,–,0.0507,–,0.057,–,0.0532,0.0485,0.0666,0.051,0.0525,0.0325,0.0537,0.0468,0.038,0.0498,–
I167S,0.0743,0.0748,–,0.0554,0.0676,0.101,0.0625,0.0508,0.046,–,0.0446,0.0575,–,0.0641,0.0604,0.0477,0.0455,0.0542,0.0598
S171V,0.0486,0.0687,0.0613,0.05,0.0847,–,0.0695,0.0618,–,0.058,0.0676,–,–,0.0686,0.0684,0.0591,0.0549,0.0755,–

# — the supplement of paper PMC12217912
